Experimental data taken from PMC9600267, “The Antibacterial Type VII Secretion System of Bacillus subtilis: Structure and Interactions of the Pseudokinase YukC/EssB” (mBio, 2022).
Read-outs that look alike come from different tables or passages of the source. These are yes or no findings as the source states them, for the method shown. Some results given as binding are weak or reduced against the parent protein; the word gives no strength. For some assays here: Tags and fused reporters may be left off the sequences shown. Blank lines part the entries; values can stand above or below the molecule they belong to.

Protein sequences, listed by entry. Tags and fused reporters are not part of them. Residues count along the entry.
UniProt P42296, residues 1-97: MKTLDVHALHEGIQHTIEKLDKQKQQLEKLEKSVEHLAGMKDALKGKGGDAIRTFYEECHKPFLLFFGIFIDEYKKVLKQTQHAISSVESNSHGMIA

Assays:
Assay in all cases: two-hybrid; bacterial two-hybrid (BACTH) in E. coli BTH101; T25 (pKT25/pKNT25) and T18 (pUT18/pUT18C) fusions; spots on LB with X-Gal and IPTG, 25°C, imaged after 48 h
[1] = target: T1, YukB, bacterial two-hybrid fusion (Bacillus subtilis 168) (UniProt C0SPA7)
T1 sequence: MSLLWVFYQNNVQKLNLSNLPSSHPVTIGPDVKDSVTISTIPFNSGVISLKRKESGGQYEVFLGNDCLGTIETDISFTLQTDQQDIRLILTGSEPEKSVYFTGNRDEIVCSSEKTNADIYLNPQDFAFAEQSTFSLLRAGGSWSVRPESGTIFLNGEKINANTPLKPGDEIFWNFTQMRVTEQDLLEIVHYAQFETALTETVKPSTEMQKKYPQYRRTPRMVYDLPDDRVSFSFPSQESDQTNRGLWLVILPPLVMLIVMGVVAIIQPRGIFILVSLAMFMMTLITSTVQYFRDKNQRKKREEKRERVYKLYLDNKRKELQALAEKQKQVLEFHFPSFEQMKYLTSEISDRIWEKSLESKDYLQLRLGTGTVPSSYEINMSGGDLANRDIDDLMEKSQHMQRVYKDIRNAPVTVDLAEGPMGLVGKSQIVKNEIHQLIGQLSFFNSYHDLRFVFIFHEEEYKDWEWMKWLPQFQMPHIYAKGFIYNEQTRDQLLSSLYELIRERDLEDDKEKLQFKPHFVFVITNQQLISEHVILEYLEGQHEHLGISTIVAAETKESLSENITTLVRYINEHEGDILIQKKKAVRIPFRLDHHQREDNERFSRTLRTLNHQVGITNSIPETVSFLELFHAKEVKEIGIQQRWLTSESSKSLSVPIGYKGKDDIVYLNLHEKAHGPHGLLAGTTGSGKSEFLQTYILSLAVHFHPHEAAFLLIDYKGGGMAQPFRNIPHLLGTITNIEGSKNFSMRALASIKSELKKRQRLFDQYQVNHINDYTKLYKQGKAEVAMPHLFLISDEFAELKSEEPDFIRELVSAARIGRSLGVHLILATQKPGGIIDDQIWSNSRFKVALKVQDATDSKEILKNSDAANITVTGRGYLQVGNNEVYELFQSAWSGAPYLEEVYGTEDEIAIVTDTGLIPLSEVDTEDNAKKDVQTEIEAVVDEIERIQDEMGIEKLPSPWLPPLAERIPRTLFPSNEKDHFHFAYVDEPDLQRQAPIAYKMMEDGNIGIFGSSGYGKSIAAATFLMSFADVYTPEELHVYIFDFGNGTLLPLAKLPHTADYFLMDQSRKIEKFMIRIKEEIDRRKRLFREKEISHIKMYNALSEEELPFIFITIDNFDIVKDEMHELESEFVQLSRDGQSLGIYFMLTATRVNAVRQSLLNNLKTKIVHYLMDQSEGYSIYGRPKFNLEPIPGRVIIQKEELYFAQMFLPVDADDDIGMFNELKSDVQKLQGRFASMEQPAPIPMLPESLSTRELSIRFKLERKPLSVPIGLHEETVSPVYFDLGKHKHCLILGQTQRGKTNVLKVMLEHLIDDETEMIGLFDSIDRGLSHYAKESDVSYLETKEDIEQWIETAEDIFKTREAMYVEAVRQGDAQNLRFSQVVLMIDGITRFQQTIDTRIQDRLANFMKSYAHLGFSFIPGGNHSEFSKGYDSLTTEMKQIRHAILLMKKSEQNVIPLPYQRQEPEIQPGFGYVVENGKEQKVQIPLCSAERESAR

[2] = target: T2, YukE, bacterial two-hybrid fusion (Bacillus subtilis 168) (UniProt C0SP85)
T2 sequence: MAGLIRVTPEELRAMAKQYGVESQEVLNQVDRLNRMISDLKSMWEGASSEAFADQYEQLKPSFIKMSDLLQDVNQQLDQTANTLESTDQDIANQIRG

[3] = target: T2, YukE, bacterial two-hybrid fusion (Bacillus subtilis 168); remark: listed apart in the source
[4] = target: T3, N-terminal region of YukB with the two FHA domains (residues 1 to 256), bacterial two-hybrid fusion (Bacillus subtilis 168) (UniProt C0SPA7)
T3 sequence: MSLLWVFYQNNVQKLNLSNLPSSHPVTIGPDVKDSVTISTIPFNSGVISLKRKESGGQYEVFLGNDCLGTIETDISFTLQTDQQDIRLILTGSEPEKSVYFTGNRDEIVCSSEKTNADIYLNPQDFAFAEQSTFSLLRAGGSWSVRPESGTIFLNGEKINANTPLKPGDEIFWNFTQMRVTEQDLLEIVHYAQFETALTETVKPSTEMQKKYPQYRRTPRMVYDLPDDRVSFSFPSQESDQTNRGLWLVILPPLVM

[5] = target: T4, YueC, bacterial two-hybrid fusion (Bacillus subtilis 168) (UniProt O32100)
T4 sequence: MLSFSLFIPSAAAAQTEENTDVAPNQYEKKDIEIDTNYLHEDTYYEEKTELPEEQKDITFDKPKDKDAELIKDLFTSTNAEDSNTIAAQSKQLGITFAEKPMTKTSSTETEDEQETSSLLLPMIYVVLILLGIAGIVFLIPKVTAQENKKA

Molecule: YxiD N-terminal 97-amino-acid region (YxiDN), bacterial two-hybrid fusion (from UniProt P42296 1-97) (domain or fragment)
binding [1]: no binding
binding [2]: binds

binding [3]: binds
binding [4]: binds
binding [5]: binds
B1: YukC (full length), bacterial two-hybrid fusion (protein, UniProt P71070 1-451)
chain: MSGEQKSYLENQLEAVAEKTDAGYTFTFQREKIKLLDGLEANVIKDINPFFHKEIDVTDDEVIITIQPPSSYKAFRFMKAKDKKSKWQFAYQLVQAVQQHNLSRLNLIVAPENIVFDKGLTPYFLHYGVKESIPPYERDEERVWQELKAAAALAVDGAFAFEDYLKFNETLTFSAEAKAILDAESYDDLLELIQTHIDELEAKAKTYIHIPRKKWNIQRYIGLGLIVLLVPALIYSMYALFFAQPKHQAIVDSNRAFLNKQYSEVISTLSKYDAESLPESVQYQLATSYVEVENLGSAKTKNIENNLVTLQSDPQHFLYWIDYGRGEYKEAISIGRKLEYNDYIYFALAKYKQQLLSEDTNDEDIQKELDSVNSELEKAQKERQENKQSNSETSLVDTSEEQTQTDEEKQAEEKAAEEKAAAEEKAKKEEQKEKEDEKKETEKKDEKKDDK
